From the supplement of paper PMC10369915
This is one part of the list. Rule as the data show it: active = 3.2 or more and inactive = the rest. The signal is at background level for most entries.

How the values were obtained:
Assay in all cases: enrichment score (SH2-bound / input frequency) (ratio); bacterial display of known human phosphotyrosine sites (pTyr-Var adds point mutants) read by sequencing; higher = stronger binding; tyrosines were phosphorylated by kinases first
Details in all cases: peptide library: pTyr-Var
SHP2 C-SH2 domain E139D = molecular target: SHP2 C-SH2 domain E139D
[1] = molecular target: SHP2 C-SH2 domain wild-type
SHP2 N-SH2 domain L43F = molecular target: SHP2 N-SH2 domain L43F
SHP2 N-SH2 domain T42A = molecular target: SHP2 N-SH2 domain T42A
SHP2 N-SH2 domain T52S = molecular target: SHP2 N-SH2 domain T52S
[2] = molecular target: SHP2 N-SH2 domain wild-type

Measured: enrichment score
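Also: displayed peptides selected on beads carrying the immobilized SH2 domain, with library peptides lacking any tyrosine serving as negative controls.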

TSNNPYFRDQA [RPGRIP1_Y846_A841T]
inactive: SHP2 C-SH2 domain E139D 0.58 | [1] 0.51 | SHP2 N-SH2 domain L43F 0.41 | SHP2 N-SH2 domain T42A 0.567 | SHP2 N-SH2 domain T52S 0.489 | [2] 0.681

PMFTKYGNGLL [RPGRIP1L_Y196_S199G]
inactive: SHP2 C-SH2 domain E139D 1.34 | [1] 1.16 | SHP2 N-SH2 domain L43F 0.991 | SHP2 N-SH2 domain T42A 1.18 | SHP2 N-SH2 domain T52S 1.06 | [2] 0.828

KRIKSYNQEND [RPGRIP1L_Y448_L447S]
inactive: SHP2 C-SH2 domain E139D 0.746 | [1] 0.591 | SHP2 N-SH2 domain L43F 0.76 | SHP2 N-SH2 domain T42A 0.966 | SHP2 N-SH2 domain T52S 0.617 | [2] 0.528

VPLATYMRIYK [RPL21_Y30]
inactive: SHP2 C-SH2 domain E139D 0.225 | [1] 0.317 | SHP2 N-SH2 domain L43F 0.357 | SHP2 N-SH2 domain T42A 0.277 | SHP2 N-SH2 domain T52S 0.377 | [2] 0.33

VPLATYMRIFK [RPL21_Y30_YF]
inactive: SHP2 C-SH2 domain E139D 0.543 | [1] 0.548 | SHP2 N-SH2 domain L43F 0.388 | SHP2 N-SH2 domain T42A 0.367 | SHP2 N-SH2 domain T52S 0.453 | [2] 0.433

KIEGVYARDET [RPL35A_Y34]
inactive: SHP2 C-SH2 domain E139D 0.595 | [1] 0.544 | SHP2 N-SH2 domain L43F 0.594 | SHP2 N-SH2 domain T42A 0.543 | SHP2 N-SH2 domain T52S 0.55 | [2] 0.772

DENWFYTQAAS [RPS19_Y54_R56Q]
inactive: SHP2 C-SH2 domain E139D 0.883 | [1] 0.807 | SHP2 N-SH2 domain L43F 0.799 | SHP2 N-SH2 domain T42A 0.71 | SHP2 N-SH2 domain T52S 0.777 | [2] 1.02

DENCFYTRAAS [RPS19_Y54_W52C]
inactive: SHP2 C-SH2 domain E139D 0.747 | [1] 1.11 | SHP2 N-SH2 domain L43F 0.691 | SHP2 N-SH2 domain T42A 0.603 | SHP2 N-SH2 domain T52S 0.729 | [2] 0.614

DENRFYTRAAS [RPS19_Y54_W52R]
inactive: SHP2 C-SH2 domain E139D 0.637 | [1] 0.715 | SHP2 N-SH2 domain L43F 0.699 | SHP2 N-SH2 domain T42A 0.627 | SHP2 N-SH2 domain T52S 0.726 | [2] 0.658

CDDGKYVFVVT [RPS6KA3_Y488_Y483C_YF]
inactive: SHP2 C-SH2 domain E139D 0.581 | [1] 0.925 | SHP2 N-SH2 domain L43F 0.707 | SHP2 N-SH2 domain T42A 0.737 | SHP2 N-SH2 domain T52S 0.641 | [2] 0.974

IDSTPYRQWYE [RPS8_Y109]
inactive: SHP2 C-SH2 domain E139D 0.695 | [1] 0.66 | SHP2 N-SH2 domain L43F 0.803 | SHP2 N-SH2 domain T42A 0.691 | SHP2 N-SH2 domain T52S 0.537 | [2] 0.88

PYGQWYESHYA [RPS8_Y113_R110G]
inactive: SHP2 C-SH2 domain E139D 0.97 | [1] 0.906 | SHP2 N-SH2 domain L43F 0.656 | SHP2 N-SH2 domain T42A 1 | SHP2 N-SH2 domain T52S 0.789 | [2] 1.46

RLNWIYFKDQT [RS1_Y165_YF]
inactive: SHP2 C-SH2 domain E139D 2.15 | [1] 1.73 | SHP2 N-SH2 domain L43F 1.98 | SHP2 N-SH2 domain T42A 1.61 | SHP2 N-SH2 domain T52S 2.26 | [2] 1.82

LNWIYYKDQTG [RS1_Y166]
active: SHP2 C-SH2 domain E139D 3.73 | SHP2 N-SH2 domain L43F 3.4 | SHP2 N-SH2 domain T42A 3.57 | SHP2 N-SH2 domain T52S 3.87
inactive: [1] 2.84 | [2] 2.75

NNRVFYGNSDC [RS1_Y177_R182C]
inactive: SHP2 C-SH2 domain E139D 0.84 | [1] 0.737 | SHP2 N-SH2 domain L43F 0.727 | SHP2 N-SH2 domain T42A 0.766 | SHP2 N-SH2 domain T52S 0.686 | [2] 0.805

CKRQFYLYKGK [RSPO4_Y112]
inactive: SHP2 C-SH2 domain E139D 0.882 | [1] 0.959 | SHP2 N-SH2 domain L43F 0.716 | SHP2 N-SH2 domain T42A 0.657 | SHP2 N-SH2 domain T52S 0.838 | [2] 0.878

CKRQFYLFKGK [RSPO4_Y112_YF]
inactive: SHP2 C-SH2 domain E139D 1.34 | [1] 1.17 | SHP2 N-SH2 domain L43F 1.35 | SHP2 N-SH2 domain T42A 1.17 | SHP2 N-SH2 domain T52S 1.29 | [2] 1.3

LREKVYASLEA [RXRA_Y397]
inactive: SHP2 C-SH2 domain E139D 0.93 | [1] 1.11 | SHP2 N-SH2 domain L43F 0.977 | SHP2 N-SH2 domain T42A 1.06 | SHP2 N-SH2 domain T52S 0.665 | [2] 1.17

LREKVYVSLEA [RXRA_Y397_A398V]
inactive: SHP2 C-SH2 domain E139D 1.08 | [1] 0.967 | SHP2 N-SH2 domain L43F 1.1 | SHP2 N-SH2 domain T42A 1.36 | SHP2 N-SH2 domain T52S 0.927 | [2] 1.28

PIMSFYAALID [RYR1_Y2426_A2421P]
inactive: SHP2 C-SH2 domain E139D 0.824 | [1] 1.08 | SHP2 N-SH2 domain L43F 1.12 | SHP2 N-SH2 domain T42A 1.03 | SHP2 N-SH2 domain T52S 1.07 | [2] 1.06

AIKSFYAALID [RYR1_Y2426_M2423K]
inactive: SHP2 C-SH2 domain E139D 1.75 | [1] 2.21 | SHP2 N-SH2 domain L43F 1.96 | SHP2 N-SH2 domain T42A 2.07 | SHP2 N-SH2 domain T52S 1.96 | [2] 1.78

FFCKFYNKSED [RYR1_Y4864_R4861C]
inactive: SHP2 C-SH2 domain E139D 0.951 | [1] 1.39 | SHP2 N-SH2 domain L43F 1.02 | SHP2 N-SH2 domain T42A 0.785 | SHP2 N-SH2 domain T52S 1.04 | [2] 1.36

LKALHYMVQTS [SACS_Y3367]
inactive: SHP2 C-SH2 domain E139D 1.98 | [1] 2.07 | SHP2 N-SH2 domain L43F 2.87 | SHP2 N-SH2 domain T42A 1.84 | [2] 2.24
active: SHP2 N-SH2 domain T52S 3.21

LKALHYMAQTS [SACS_Y3367_V3369A]
inactive: SHP2 C-SH2 domain E139D 1.31 | [1] 1.23 | SHP2 N-SH2 domain L43F 1.19 | SHP2 N-SH2 domain T42A 0.894 | SHP2 N-SH2 domain T52S 1.09 | [2] 1.24

DDLEVYLKHLL [SACS_Y3477]
inactive: SHP2 C-SH2 domain E139D 1.54 | [1] 1.17 | SHP2 N-SH2 domain L43F 1.01 | SHP2 N-SH2 domain T42A 1.04 | SHP2 N-SH2 domain T52S 1.17 | [2] 0.996

FQCLRYIKQLG [SAMHD1_Y146_R143C]
inactive: SHP2 C-SH2 domain E139D 1.09 | [1] 1.18 | SHP2 N-SH2 domain L43F 0.855 | SHP2 N-SH2 domain T42A 0.699 | SHP2 N-SH2 domain T52S 0.692 | [2] 1.17

RCQDLYSARDL [SART1_Y249_R245C]
inactive: SHP2 C-SH2 domain E139D 0.843 | [1] 0.989 | SHP2 N-SH2 domain L43F 0.807 | SHP2 N-SH2 domain T42A 0.673 | SHP2 N-SH2 domain T52S 0.771 | [2] 0.854

LVMFIDAIFGM [SCN1A_Y1684_Y1684D]
active: [1] 3.37 | SHP2 N-SH2 domain T52S 3.81 | [2] 4.04
inactive: SHP2 C-SH2 domain E139D 2.98 | SHP2 N-SH2 domain L43F 3.01 | SHP2 N-SH2 domain T42A 2.33

MSNFAYVKREV [SCN1A_Y1694]
inactive: SHP2 C-SH2 domain E139D 1 | [1] 0.823 | SHP2 N-SH2 domain L43F 0.93 | SHP2 N-SH2 domain T42A 0.689 | SHP2 N-SH2 domain T52S 0.975 | [2] 0.905

RAYRRYLLKQK [SCN2A_Y1919]
inactive: SHP2 C-SH2 domain E139D 0.501 | [1] 0.157 | SHP2 N-SH2 domain L43F 0.291 | SHP2 N-SH2 domain T42A 0.225 | SHP2 N-SH2 domain T52S 0.249 | [2] 0.277

RAFRHYLLKQK [SCN2A_Y1919_R1918H_YF]
inactive: SHP2 C-SH2 domain E139D 0.337 | [1] 0.394 | SHP2 N-SH2 domain L43F 0.356 | SHP2 N-SH2 domain T42A 0.43 | SHP2 N-SH2 domain T52S 0.338 | [2] 0.374

RAFRRYLLKQK [SCN2A_Y1919_YF]
inactive: SHP2 C-SH2 domain E139D 0.248 | [1] 0.283 | SHP2 N-SH2 domain L43F 0.282 | SHP2 N-SH2 domain T42A 0.352 | SHP2 N-SH2 domain T52S 0.213 | [2] 0.325

EEQKKYFNATK [SCN5A_Y1494_M1498T_YF]
inactive: SHP2 C-SH2 domain E139D 1.21 | [1] 0.82 | SHP2 N-SH2 domain L43F 0.943 | SHP2 N-SH2 domain T42A 0.813 | SHP2 N-SH2 domain T52S 0.784 | [2] 0.82

EEQKKYYNAVK [SCN5A_Y1494_M1498V]
inactive: SHP2 C-SH2 domain E139D 0.536 | [1] 0.467 | SHP2 N-SH2 domain L43F 0.59 | SHP2 N-SH2 domain T42A 0.588 | SHP2 N-SH2 domain T52S 0.504 | [2] 0.761

EEQKKNFNAMK [SCN5A_Y1494_Y1494N_YF]
inactive: SHP2 C-SH2 domain E139D 0.524 | [1] 0.634 | SHP2 N-SH2 domain L43F 0.624 | SHP2 N-SH2 domain T42A 0.695 | SHP2 N-SH2 domain T52S 0.671 | [2] 0.707

EEQKKYFNAMK [SCN5A_Y1494_YF]
inactive: SHP2 C-SH2 domain E139D 0.729 | [1] 0.574 | SHP2 N-SH2 domain L43F 0.586 | SHP2 N-SH2 domain T42A 0.627 | SHP2 N-SH2 domain T52S 0.585 | [2] 0.715

EQKKYYNATKK [SCN5A_Y1495_M1498T]
inactive: SHP2 C-SH2 domain E139D 0.657 | [1] 0.704 | SHP2 N-SH2 domain L43F 0.663 | SHP2 N-SH2 domain T42A 0.715 | SHP2 N-SH2 domain T52S 0.723 | [2] 0.571
